In article PMC12668182 one finds binding data, which are given here for 2 molecules.

Protein sequences, listed by entry. Tags and fused reporters are not part of them. Lines headed by an entry give the natural chain unless they say otherwise; changes in a name come on top.
UniProt Q03468: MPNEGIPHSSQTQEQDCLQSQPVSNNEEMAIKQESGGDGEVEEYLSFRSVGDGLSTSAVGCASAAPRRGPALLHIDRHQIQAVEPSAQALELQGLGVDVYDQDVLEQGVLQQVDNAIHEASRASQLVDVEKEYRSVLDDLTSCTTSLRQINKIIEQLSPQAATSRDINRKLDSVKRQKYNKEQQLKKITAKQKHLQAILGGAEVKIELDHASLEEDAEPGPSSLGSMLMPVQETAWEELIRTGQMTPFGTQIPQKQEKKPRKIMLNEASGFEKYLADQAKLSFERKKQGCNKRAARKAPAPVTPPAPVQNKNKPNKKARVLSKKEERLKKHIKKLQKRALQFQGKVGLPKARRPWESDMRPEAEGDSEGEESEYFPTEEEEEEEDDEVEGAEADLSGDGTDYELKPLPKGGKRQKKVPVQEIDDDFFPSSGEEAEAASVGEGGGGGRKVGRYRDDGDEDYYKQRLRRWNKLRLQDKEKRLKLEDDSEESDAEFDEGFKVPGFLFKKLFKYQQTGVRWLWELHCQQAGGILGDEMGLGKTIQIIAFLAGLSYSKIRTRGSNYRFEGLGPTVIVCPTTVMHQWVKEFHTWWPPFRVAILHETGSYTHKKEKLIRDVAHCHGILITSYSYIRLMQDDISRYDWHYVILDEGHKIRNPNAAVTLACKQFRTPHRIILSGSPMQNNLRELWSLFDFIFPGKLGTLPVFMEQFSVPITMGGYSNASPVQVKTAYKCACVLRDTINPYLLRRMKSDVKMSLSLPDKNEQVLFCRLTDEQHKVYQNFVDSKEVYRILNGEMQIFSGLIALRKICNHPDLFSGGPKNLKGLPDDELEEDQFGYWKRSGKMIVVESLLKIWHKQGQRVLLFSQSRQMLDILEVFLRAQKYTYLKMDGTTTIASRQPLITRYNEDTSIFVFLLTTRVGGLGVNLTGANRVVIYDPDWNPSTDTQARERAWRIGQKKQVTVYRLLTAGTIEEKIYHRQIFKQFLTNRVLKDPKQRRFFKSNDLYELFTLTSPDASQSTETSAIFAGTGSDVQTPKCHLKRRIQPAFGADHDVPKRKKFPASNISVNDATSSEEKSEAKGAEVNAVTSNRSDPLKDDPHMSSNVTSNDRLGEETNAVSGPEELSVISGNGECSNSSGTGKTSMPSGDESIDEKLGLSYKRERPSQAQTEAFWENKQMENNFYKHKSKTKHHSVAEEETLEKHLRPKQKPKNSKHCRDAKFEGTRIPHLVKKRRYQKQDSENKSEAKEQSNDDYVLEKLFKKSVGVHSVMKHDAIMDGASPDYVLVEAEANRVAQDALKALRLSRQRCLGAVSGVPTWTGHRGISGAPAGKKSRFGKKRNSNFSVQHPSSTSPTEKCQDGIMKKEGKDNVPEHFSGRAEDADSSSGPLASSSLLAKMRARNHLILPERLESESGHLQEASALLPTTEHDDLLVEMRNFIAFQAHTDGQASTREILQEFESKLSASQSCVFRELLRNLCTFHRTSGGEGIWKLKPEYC

These are yes or no findings as the source states them, for the method shown. For part of these data: In cells and extracts the contact can be indirect. Some binding calls cover weakened binding; strength is not graded here. Tags and fused reporters may be left off the sequences shown.

Assay [1] has as its target N-His-ZB-CSB-Avi-Biotin (T1447A), full length (human) (UniProt Q03468). Description: SPR; multi-cycle; full-length CSB immobilised via biotinylated C-terminal Avi tag; untagged SNM1A 698-1040 as analyte, 90 s injection; 20 mM HEPES pH 7.5, 500 mM NaCl, 0.5 mM TCEP, 0.01% TWEEN-20; both purified. (In general: SPR reads the build-up and loss of mass on a sensor chip optically.)

In assay [2] the target is GFP-tagged CSB, full-length construct, WT (human) (UniProt Q03468). Description: co-IP; GFP-Trap magnetic agarose on RIPA lysates (with Benzonase) of HEK293 FT cells transfected with GFP-tagged SNM1A or CSB; washes with 150, 250 and 500 mM NaCl; Western blot. (In general: Immunoblotting shows a protein as a band on a membrane.)
For assay [3], the target named is GFP-tagged CSB, full-length construct, T1447A (human) (UniProt Q03468). The description is as above.

B1: SNM1A (WT, a.a. 698-1040, untagged) (domain or fragment, UniProt Q6PJP8 698-1040)
chain: KKTCPFYKKIPGTGFTVDAFQYGVVEGCTAYFLTHFHSDHYAGLSKHFTFPVYCSEITGNLLKNKLHVQEQYIHPLPLDTECIVNGVKVVLLDANHCPGAVMILFYLPNGTVILHTGDFRADPSMERSLLADQKVHMLYLDTTYCSPEYTFPSQQEVIRFAINTAFEAVTLNPHALVVCGTYSIGKEKVFLAIADVLGSKVGMSQEKYKTLQCLNIPEINSLITTDMCSSLVHLLPMMQINFKGLQSHLKKCGGKYNQILAFRPTGWTHSNKFTRIADVIPQTKGNISIYGIPYSEHSSYLEMKRFVQWLKPQKIIPTVNVGTWKSRSTMEKYFREWKLEAGY
B1: the binding entry in assay [1] is “no binding”.

B2: SNM1A tested in the co-immunoprecipitates of GFP-CSB (protein, UniProt Q6PJP8 1-1040)
chain: MLEDISEEDIWEYKSKRKPKRVDPNNGSKNILKSVEKATDGKYQSKRSRNRKRAAEAKEVKDHEVPLGNAGCQTSVASSQNSSCGDGIQQTQDKETTPGKLCRTQKSQHVSPKIRPVYDGYCPNCQMPFSSLIGQTPRWHVFECLDSPPRSETECPDGLLCTSTIPFHYKRYTHFLLAQSRAGDHPFSSPSPASGGSFSETKSGVLCSLEERWSSYQNQTDNSVSNDPLLMTQYFKKSPSLTEASEKISTHIQTSQQALQFTDFVENDKLVGVALRLANNSEHINLPLPENDFSDCEISYSPLQSDEDTHDIDEKPDDSQEQLFFTESSKDGSLEEDDDSCGFFKKRHGPLLKDQDESCPKVNSFLTRDKYDEGLYRFNSLNDLSQPISQNNESTLPYDLACTGGDFVLFPPALAGKLAASVHQATKAKPDEPEFHSAQSNKQKQVIEESSVYNQVSLPLVKSLMLKPFESQVEGYLSSQPTQNTIRKLSSENLNAKNNTNSACFCRKALEGVPVGKATILNTENLSSTPAPKYLKILPSGLKYNARHPSTKVMKQMDIGVYFGLPPKRKEEKLLGESALEGINLNPVPSPNQKRSSQCKRKAEKSLSDLEFDASTLHESQLSVELSSERSQRQKKRCRKSNSLQEGACQKRSDHLINTESEAVNLSKVKVFTKSAHGGLQRGNKKIPESSNVGGSRKKTCPFYKKIPGTGFTVDAFQYGVVEGCTAYFLTHFHSDHYAGLSKHFTFPVYCSEITGNLLKNKLHVQEQYIHPLPLDTECIVNGVKVVLLDANHCPGAVMILFYLPNGTVILHTGDFRADPSMERSLLADQKVHMLYLDTTYCSPEYTFPSQQEVIRFAINTAFEAVTLNPHALVVCGTYSIGKEKVFLAIADVLGSKVGMSQEKYKTLQCLNIPEINSLITTDMCSSLVHLLPMMQINFKGLQSHLKKCGGKYNQILAFRPTGWTHSNKFTRIADVIPQTKGNISIYGIPYSEHSSYLEMKRFVQWLKPQKIIPTVNVGTWKSRSTMEKYFREWKLEAGY
Regarding B2, the binding entry in assay [2] was “binds”; in assay [3] it was “no binding”.
